Assay results: article PMC4336329 (PLoS ONE, 2015)
In all, about 310,000 compounds went through this assay and about 2,200 (0.71%) showed an effect of 50% or more. Effects have a minus sign here. This is one part of the list.

These molecules were tested against human ether-à-go-go-related gene (hERG) potassium channel (human, UniProt Q12809) (assay: primary screen, population patch clamp on CHO cells stably expressing hERG).
Sequence of human ether-à-go-go-related gene (hERG) potassium channel (Q12809 whole entry, looked up): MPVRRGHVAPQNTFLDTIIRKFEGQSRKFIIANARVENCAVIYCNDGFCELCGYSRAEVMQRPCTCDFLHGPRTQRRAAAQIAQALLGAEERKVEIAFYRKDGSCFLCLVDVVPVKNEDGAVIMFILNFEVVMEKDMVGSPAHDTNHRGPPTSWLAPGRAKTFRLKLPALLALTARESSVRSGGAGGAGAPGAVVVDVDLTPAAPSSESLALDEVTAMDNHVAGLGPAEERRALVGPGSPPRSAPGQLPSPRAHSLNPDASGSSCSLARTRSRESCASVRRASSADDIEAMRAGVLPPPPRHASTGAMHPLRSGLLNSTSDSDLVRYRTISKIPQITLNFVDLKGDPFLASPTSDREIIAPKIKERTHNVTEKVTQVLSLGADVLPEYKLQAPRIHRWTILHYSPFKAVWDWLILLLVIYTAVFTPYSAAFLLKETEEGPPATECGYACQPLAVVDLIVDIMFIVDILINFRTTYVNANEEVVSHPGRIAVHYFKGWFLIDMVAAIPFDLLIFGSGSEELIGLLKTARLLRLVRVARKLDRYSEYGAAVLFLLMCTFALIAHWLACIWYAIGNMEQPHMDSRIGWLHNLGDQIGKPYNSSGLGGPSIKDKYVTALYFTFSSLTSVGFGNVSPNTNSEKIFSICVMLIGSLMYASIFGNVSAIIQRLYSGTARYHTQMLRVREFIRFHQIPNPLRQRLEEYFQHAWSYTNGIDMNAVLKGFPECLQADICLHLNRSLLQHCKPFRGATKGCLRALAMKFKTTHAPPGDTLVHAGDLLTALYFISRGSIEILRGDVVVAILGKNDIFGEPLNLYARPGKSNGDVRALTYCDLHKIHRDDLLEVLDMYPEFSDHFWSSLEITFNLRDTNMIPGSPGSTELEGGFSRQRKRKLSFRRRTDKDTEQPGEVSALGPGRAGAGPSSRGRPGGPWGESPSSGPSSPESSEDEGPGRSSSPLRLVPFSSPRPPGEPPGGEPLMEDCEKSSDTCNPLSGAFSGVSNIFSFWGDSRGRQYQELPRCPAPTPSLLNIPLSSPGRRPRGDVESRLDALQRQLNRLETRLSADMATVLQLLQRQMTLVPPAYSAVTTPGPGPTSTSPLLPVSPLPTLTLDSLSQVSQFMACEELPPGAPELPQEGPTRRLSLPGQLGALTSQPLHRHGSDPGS

SMILES | hERG current change (%, negative = inhibition) at 1uM
S=C(Nc1cccc(Cl)c1)N(CCCN1CCCC1)Cc1cccn1Cc1ccc(Cl)cc1 | 1.06%
Cc1cc(C)nc(NS(=O)(=O)c2ccc(N=Cc3c(C)[nH]n(-c4ccccc4)c3=O)cc2)n1 | 17.5%
COc1ccccc1NC(=S)N1CCC(C(=O)c2ccc(F)cc2)CC1 | 6.18%
COCCNC(=O)C1CCC(CNS(=O)(=O)c2ccc(F)cc2)CC1 (centres unmarked) | 11.3%
Cc1ccc(NC(=O)CCCOc2ccccc2)cc1S(=O)(=O)N1CCOCC1 | 2.85%
C#CC[N+]1(CC#Cc2cccc(C)c2)CCCCC1.[Br-] | 3.55%
O=C(Nc1nc2ccc([N+](=O)[O-])cc2s1)c1c(F)cccc1F | 7.94%
CCCCCn1c(=O)c(C(=O)NCCc2ccccc2)c(O)c2ccccc21 | 20.5%
O=C(C1CCCCC1)N1CCCC(c2nc(-c3ccc(F)cc3)no2)C1 (centres unmarked) | 9.37%
CC1(C)CC(=O)C2=C(C1)Nc1ccccc1S2 | 12.2%
Cc1cccn2c(=O)c(C(=O)NC3CC(C)CC(C)(C)C3)c(O)nc12 (centres unmarked) | -11.4%
O=C(Cc1ccccc1)NNC(=S)NC(=O)c1cccs1 | 13.4%
O=C(Cc1ccc(Cl)cc1)Nc1ccc(NC(=O)c2cccs2)cc1 | 9.53%
COc1ccc(C(=O)N2CCC(O)(c3ccc(F)cc3)CC2)cc1OC | -1.45%
CCN1C(=O)CS/C1=N\S(=O)(=O)c1ccc(C)cc1 | 3.7%
CCOc1ccc(S(=O)(=O)N2CCC(C(=O)NC3CC3)CC2)cc1Cl | 7.65%
O=C(CN1C(=O)S/C(=C\c2ccccc2)C1=O)NNC(=O)c1ccccc1O | 7%
CCOC(=O)CON1C(=O)c2ccccc2C1=O | 10.5%
O=C(O)CC(NC(=O)c1cccc(F)c1)c1ccc(OC2CCCC2)cc1 (centres unmarked) | 12.8%
CCOC(=O)C1CCN(Cc2ccc3ccccc3c2)CC1 | 8.55%
Clc1ccccc1CSc1cc2c(nn1)-c1ccccc1CC2 | -8.69%
COc1ccc(CN2CCN(C(=O)CCC(=O)c3ccc(C)s3)CC2)cc1OC | 3.78%
CSc1ccc(CNc2ccc(Cl)cc2)cc1 | 5.46%

SMILES | hERG current change (%, negative = inhibition) at 1uM
O=C(NCCC1=CCCCC1)c1cccc2c1C(=O)N(C1CCCCC1)C2 | 7.18%
Nc1nn(S(=O)(=O)c2cccc3nsnc23)cc1-c1ccc(Br)cc1 | 11.4%
CCSc1nnc(NC(=O)CN2C(=O)NC3(CCCC3)C2=O)s1 | 7%
CCCCNc1c(-c2cccc(SC3CCCCC3)c2)nc2ccc(Cl)cn12.O=C(O)C(F)(F)F | -0.679%
COC(=O)c1cccc(COC(=O)CNC(=O)c2ccco2)c1 | 21.1%
O=S(=O)(c1ccccc1)N1c2cc(Cl)ccc2Oc2nc3ccccc3nc21 | -3.11%
CC(c1ccccc1)N1CCc2[nH]c(=S)[nH]c(=O)c2C1 (centres unmarked) | 10.9%
COCc1nnc(NC(=O)CSCc2ccccc2)s1 | 14.5%
CCOc1ccc(C(=O)CCC(=O)N(CC)CC(=O)NCc2ccc(Cl)cc2)cc1 | -8.36%
O=c1[nH]c2ccc(Cl)cc2c(O)c1-c1ccccc1 | 14.6%
OCC1CCCCN1CCNCc1cn[nH]c1-c1cccc2ccccc12 (centres unmarked) | 2.34%
CCC(C(=O)OCC(=O)Nc1ccc(F)cc1)c1ccccc1 (centres unmarked) | -0.329%
Cc1nc(N2CCCCC2)sc1C=O | 16.2%
COC(=O)C1=C(C)NC(C)=C(C(=O)OC)C1c1ccccc1OCc1c(C)no[n+]1[O-] | -7.56%
CC1CC(C)(C)NC(=S)N1CCCC(=O)Nc1ccc(F)cc1 (centres unmarked) | 11.6%
CCCC(=O)N(Cc1cc(=O)[nH]c2ccccc12)c1ccc(C)cc1C | 15.1%
CC(=O)Nc1cccc(Oc2nc(C(F)(F)F)nc3ccccc23)c1 | 2.68%
C=CCn1c2ccccc2c2nnc(SCC(N)=O)nc21 | 11.7%
Cc1cc(C)cc(-n2cccc2/C=C2/C(=N)N3C(=NC2=O)SN=C3S(C)(=O)=O)c1 | 3.74%
O=C(CSc1nccn1-c1ncc(C(F)(F)F)cc1Cl)c1ccc(Cl)cc1 | 10.6%
Cn1c(Cc2ccccc2)nnc1SCc1cc(=O)n2ccsc2n1 | 37.2%
Cc1ccc2nc(NC(=O)c3ccc(-c4nc5ccccc5s4)s3)sc2c1 | 10.3%
CS(=O)(=O)Nc1ccc(C2=NN(C(=O)c3ccco3)C(c3cccc(F)c3)C2)cc1 (centres unmarked) | -85.9%

SMILES | hERG current change (%, negative = inhibition) at 1uM
COc1ccccc1NC(=O)CC(=O)Nc1ccccc1OC | 13.7%
Cc1cccc(N(Cc2ccc(Cl)cc2)S(C)(=O)=O)c1 | 26.6%
O=C(CNC(=S)N(CCCN1CCOCC1)Cc1cccs1)NC1CCCC1 | 2.77%
C[C@@H](C(=O)NC1CCCCC1)N1C(=O)N2CCc3c([nH]c4ccccc34)[C@@]2(C)C1=O | 6.3%
CC1=NN(c2ccc(Cl)c(C(=O)O)c2)C(=O)C1 | 2.42%
Cc1ccc(S(=O)(=O)N2CCN(C(=O)c3ccc4nc[nH]c4c3)CC2)cc1 | 1.68%
Cc1ccc(C(=O)NCC(=O)OCC(=O)c2cc(C)n(Cc3ccco3)c2C)cc1 | 11.7%
CC1COc2ccccc2N1C(=O)c1ccc(Cl)cc1 (centres unmarked) | 14.5%
O=c1c2ccccc2nc(SCc2nc3ccccc3s2)n1CCCO | 11.9%
Cc1ccc(S(=O)(=O)N(C)c2ccccc2)cc1 | 0.592%
C/C(Cl)=C/Cn1c(SCCN2CCOCC2)nc2c1c(=O)[nH]c(=O)n2C | -22.9%
O=C(CSc1ncc(C(F)(F)F)cc1Cl)N1CCN(S(=O)(=O)c2ccccc2)CC1 | -2.49%
CCn1c(CNC(=O)c2cccnc2)cc2ccccc21 | 13.1%
CCc1ccc(-c2nc(CN3CCC(C(=O)N4CCN(c5ccccn5)CC4)CC3)c(C)o2)cc1 | -21.8%
O=C1CCCCCCC1Sc1ccccc1[N+](=O)[O-] (centres unmarked) | 3.82%
Cc1ccc(-n2c(SCC(N)=O)nc(O)cc2=O)cc1 | 5.34%
c1ccc(-c2nc3cc4ccccc4cc3[nH]2)nc1 | 14.5%
CC(=O)c1cccc(CN2CCCC(CCC(=O)NCc3ccccc3F)C2)c1 (centres unmarked) | -12.4%
N#CC1=C(S)N(c2ccccc2)C(c2ccco2)NC1=O (centres unmarked) | 13.7%
O=C(CSc1nc2c(c(=O)n1-c1ccc(Br)cc1)SCC2)NCC1CCCO1 (centres unmarked) | -21.7%
O=C(COC(=O)c1ccccc1Br)Nc1ccc2[nH]c(=O)[nH]c2c1 | 3.66%
Cc1sc2ncnc(N3CCC(C(=O)Nc4ccc(C#N)c(Cl)c4)CC3)c2c1C | -1.88%
COCCn1cnc2c1c(=O)n(Cc1cc(C(C)=O)ccc1OC)c(=O)n2Cc1ccccc1 | -0.766%

SMILES | hERG current change (%, negative = inhibition) at 1uM
C=CCN(CC=C)CC(=O)Nc1ccc(S(N)(=O)=O)cc1 | 7.31%
COc1ccccc1-n1c(O)c(C=NC2CC2)c(=O)[nH]c1=O | -6.58%
Cc1nn(CCC(=O)NNC(=S)Nc2ccc([N+](=O)[O-])cc2)c(C)c1[N+](=O)[O-] | -18.1%
CN(C)/C=N/C(=S)Nc1ccc(Cl)c(Cl)c1 | 8.75%
COc1ccccc1CCNC(=O)C1CCC(=O)N(C2CCCCCC2)C1 (centres unmarked) | 9.92%
CCOc1ccccc1OCC(=O)Oc1ccc(C)c(C)c1 | 10.8%
O=C1Cc2cc(S(=O)(=O)Nc3cccc([N+](=O)[O-])c3)cc3c2N1CCC3 | 14.3%
N#CCc1ccc(Oc2ncc(C(F)(F)F)cc2Cl)cc1 | 9.72%
CC(C)COC(=O)c1ccc(N2C(=O)c3ccccc3C2=O)cc1 | 12.4%
O=C(Nc1cnn(Cc2ccc(Cl)cc2)c1)c1ccc([N+](=O)[O-])cc1 | 0.172%
CC(C)C(=O)Nc1cccc(C(=O)N2CCCCC2C)c1 (centres unmarked) | 4.83%
COCP(=O)(c1ccccc1)c1ccccc1 | 4.19%
COCCCNC(=O)c1ccc2c(=O)n(Cc3ccc4c(c3)OCO4)c(=S)[nH]c2c1 | 12.4%
O=C(OCCCN=C1NS(=O)(=O)c2ccccc21)c1cccs1 | 7.56%
CC1(C)CC(=O)C2=C(C1)NC(Nc1nc3ccccc3o1)=NC21CCCCC1 | 7.89%
COc1ccc(-c2nc3nc(C)cc(=O)n3[nH]2)cc1 | 15.7%
CCN(c1c(C)n(C)n(-c2ccccc2)c1=O)S(C)(=O)=O | 20.7%
Cc1ccc(/C=C/C(=O)c2ccc(O)cc2)cc1 | 14.4%
CCN(CC)c1ccc(/C=C2\C(=O)N(c3nnc(C)c(=O)[nH]3)N=C2C)cc1 | 6.74%
COc1ccc(N2CCN(C(=O)c3ccc(OCc4c(C)noc4C)c(OC)c3)CC2)cc1 | 8.14%
